Our source for the binding signal values is PMC9911399, “Two distinct binding modes provide the RNA-binding protein RbFox with extraordinary sequence specificity”.

Positions count from the first letter of the chain named. Some of the results follow.

T1: RBFOX1 RRM (Homo sapiens, UniProt Q9NWB1 109-208)
T1 sequence: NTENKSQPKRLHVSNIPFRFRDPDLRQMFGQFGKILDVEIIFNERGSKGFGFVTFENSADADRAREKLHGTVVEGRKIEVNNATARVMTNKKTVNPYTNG

B1: AAUAUAC (DNA:RNA)
RNA: GGGAGACCGGAAUUCAGAUUGUCCAAUAUACUUAAAUCCCGUCGUAGCCACCA
DNA 1: CAATCTGAATTCCGGTCTCCC
DNA 2: TGGTGGCTACGACGGGATT
B2: UUGGGAG (DNA:RNA)
RNA: B1 RNA with A25U, A26U, U27G, A28G, U29G, C31G
DNA 1: CAATCTGAATTCCGGTCTCCC
DNA 2: TGGTGGCTACGACGGGATT
B3: GCUUGAA (DNA:RNA)
RNA: B1 RNA with A25G, A26C, A28U, U29G, C31A
DNA 1: CAATCTGAATTCCGGTCTCCC
DNA 2: TGGTGGCTACGACGGGATT
B4: ACAGGCG (DNA:RNA)
RNA: B1 RNA with A26C, U27A, A28G, U29G, A30C, C31G
DNA 1: CAATCTGAATTCCGGTCTCCC
DNA 2: TGGTGGCTACGACGGGATT
B5: GCACGUG (DNA:RNA)
RNA: GGGAGACCGGAAUUCAGAUUGUCCGCACGUGUUAAAUCCCGUCGUAGCCACCA
DNA 1: CAATCTGAATTCCGGTCTCCC
DNA 2: TGGTGGCTACGACGGGATT
B6: CCCCUAU (DNA:RNA)
RNA: B1 RNA with A25C, A26C, U27C, A28C, C31U
DNA 1: CAATCTGAATTCCGGTCTCCC
DNA 2: TGGTGGCTACGACGGGATT
B7: GACCUUA (DNA:RNA)
RNA: B5 RNA with C26A, A27C, G29U, G31A
DNA 1: CAATCTGAATTCCGGTCTCCC
DNA 2: TGGTGGCTACGACGGGATT
B8: GGACGUC (DNA:RNA)
RNA: B5 RNA with C26G, G31C
DNA 1: CAATCTGAATTCCGGTCTCCC
DNA 2: TGGTGGCTACGACGGGATT
B9: GCGCUUC (DNA:RNA)
RNA: B5 RNA with A27G, G29U, G31C
DNA 1: CAATCTGAATTCCGGTCTCCC
DNA 2: TGGTGGCTACGACGGGATT
B10: UCCACCU (DNA:RNA)
RNA: B1 RNA with A25U, A26C, U27C, U29C, A30C, C31U
DNA 1: CAATCTGAATTCCGGTCTCCC
DNA 2: TGGTGGCTACGACGGGATT
B11: ACCGUUA (DNA:RNA)
RNA: B1 RNA with A26C, U27C, A28G, A30U, C31A
DNA 1: CAATCTGAATTCCGGTCTCCC
DNA 2: TGGTGGCTACGACGGGATT
B12: UGGGUGC (DNA:RNA)
RNA: B1 RNA with A25U, A26G, U27G, A28G, A30G
DNA 1: CAATCTGAATTCCGGTCTCCC
DNA 2: TGGTGGCTACGACGGGATT
B13: ACCACAC (DNA:RNA)
RNA: B1 RNA with A26C, U27C, U29C
DNA 1: CAATCTGAATTCCGGTCTCCC
DNA 2: TGGTGGCTACGACGGGATT
B14: GCCCAUU (DNA:RNA)
RNA: B5 RNA with A27C, G29A, G31U
DNA 1: CAATCTGAATTCCGGTCTCCC
DNA 2: TGGTGGCTACGACGGGATT
B15: ACGACAU (DNA:RNA)
RNA: B1 RNA with A26C, U27G, U29C, C31U
DNA 1: CAATCTGAATTCCGGTCTCCC
DNA 2: TGGTGGCTACGACGGGATT
B16: AUCUGCC (DNA:RNA)
RNA: B1 RNA with A26U, U27C, A28U, U29G, A30C
DNA 1: CAATCTGAATTCCGGTCTCCC
DNA 2: TGGTGGCTACGACGGGATT
B17: GGCACUG (DNA:RNA)
RNA: B5 RNA with C26G, A27C, C28A, G29C
DNA 1: CAATCTGAATTCCGGTCTCCC
DNA 2: TGGTGGCTACGACGGGATT
B18: AGAUACG (DNA:RNA)
RNA: B5 RNA with G25A, C26G, C28U, G29A, U30C
DNA 1: CAATCTGAATTCCGGTCTCCC
DNA 2: TGGTGGCTACGACGGGATT
B19: ACAUUUG (DNA:RNA)
RNA: B5 RNA with G25A, C28U, G29U
DNA 1: CAATCTGAATTCCGGTCTCCC
DNA 2: TGGTGGCTACGACGGGATT
B20: GCUGCAG (DNA:RNA)
RNA: B5 RNA with A27U, C28G, G29C, U30A
DNA 1: CAATCTGAATTCCGGTCTCCC
DNA 2: TGGTGGCTACGACGGGATT
B21: GUUCUUU (DNA:RNA)
RNA: B5 RNA with C26U, A27U, G29U, G31U
DNA 1: CAATCTGAATTCCGGTCTCCC
DNA 2: TGGTGGCTACGACGGGATT
B22: CUCGAAG (DNA:RNA)
RNA: B1 RNA with A25C, A26U, U27C, A28G, U29A, C31G
DNA 1: CAATCTGAATTCCGGTCTCCC
DNA 2: TGGTGGCTACGACGGGATT
B23: UCGCUCU (DNA:RNA)
RNA: B5 RNA with G25U, A27G, G29U, U30C, G31U
DNA 1: CAATCTGAATTCCGGTCTCCC
DNA 2: TGGTGGCTACGACGGGATT
B24: CAUCUAG (DNA:RNA)
RNA: B1 RNA with A25C, A28C, C31G
DNA 1: CAATCTGAATTCCGGTCTCCC
DNA 2: TGGTGGCTACGACGGGATT
B25: CUUCGAC (DNA:RNA)
RNA: B1 RNA with A25C, A26U, A28C, U29G
DNA 1: CAATCTGAATTCCGGTCTCCC
DNA 2: TGGTGGCTACGACGGGATT
B26: UCGCCAU (DNA:RNA)
RNA: B5 RNA with G25U, A27G, G29C, U30A, G31U
DNA 1: CAATCTGAATTCCGGTCTCCC
DNA 2: TGGTGGCTACGACGGGATT
B27: UUAACCU (DNA:RNA)
RNA: B1 RNA with A25U, A26U, U27A, U29C, A30C, C31U
DNA 1: CAATCTGAATTCCGGTCTCCC
DNA 2: TGGTGGCTACGACGGGATT
B28: ACUGGAC (DNA:RNA)
RNA: B1 RNA with A26C, A28G, U29G
DNA 1: CAATCTGAATTCCGGTCTCCC
DNA 2: TGGTGGCTACGACGGGATT
B29: GAAGAGU (DNA:RNA)
RNA: B5 RNA with C26A, C28G, G29A, U30G, G31U
DNA 1: CAATCTGAATTCCGGTCTCCC
DNA 2: TGGTGGCTACGACGGGATT
B30: AAAGCUC (DNA:RNA)
RNA: B1 RNA with U27A, A28G, U29C, A30U
DNA 1: CAATCTGAATTCCGGTCTCCC
DNA 2: TGGTGGCTACGACGGGATT
B31: AUAACUG (DNA:RNA)
RNA: B5 RNA with G25A, C26U, C28A, G29C
DNA 1: CAATCTGAATTCCGGTCTCCC
DNA 2: TGGTGGCTACGACGGGATT

This assay deals with T1, RBFOX1 RRM. The experiment in a line: EMSA; HiTS-Eq, 1 nM pool, 10 min; buffer printed only for the single-RNA assays: 10 mM Tris pH 7.5, 150 mM NaCl, 3.4 mM EDTA, 0.001% NP-40, 30 C. The note with it: tags: His6 N-terminal (pET28a); label: 5' 32P. An outline of the steps: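 These values rest on relative association constants, computed from read-count changes of each RNA species versus the control reaction and normalised to the cognate motif. Reads came from free RNA recovered by 8% native PAGE after purified RbFox RRM (wild type or mutant) at increasing concentrations was equilibrated for 10 min in 50 µL with 1 nM of a 5′-radiolabelled pool with 7 randomized nucleotides and DNA-annealed flanks.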
In the case of B1, the binding signal was 0.00131 KA relative to UGCAUGU.

Consider B2, for which the binding signal is 0.0104 KA relative to UGCAUGU.

On to B3, for which the binding signal was 0.0288 KA relative to UGCAUGU.

Consider B4, for which the binding signal is 0.00856 KA relative to UGCAUGU.

As to B5, the binding signal was 0.0821 KA relative to UGCAUGU.

As to B6, the binding signal is 0.00285 KA relative to UGCAUGU.

Regarding B7, the binding signal was 0.00432 KA relative to UGCAUGU.

For the molecule B8, the binding signal is 0.0278 KA relative to UGCAUGU.

For B9, the binding signal was 0.0175 KA relative to UGCAUGU.

In the case of B10, the binding signal is 0.00394 KA relative to UGCAUGU.

As for B11, the binding signal was 0.00138 KA relative to UGCAUGU.

Turning to B12, the binding signal was 0.0429 KA relative to UGCAUGU.

B13: the binding signal is 0.000544 KA relative to UGCAUGU.

With B14, the binding signal was 0.00484 KA relative to UGCAUGU.

On to B15, for which the binding signal was 0.00295 KA relative to UGCAUGU.

Turning to B16, the binding signal was 0.012 KA relative to UGCAUGU.

On to B17, for which the binding signal was 0.0143 KA relative to UGCAUGU.

Consider B18, for which the binding signal is 0.00918 KA relative to UGCAUGU.

Turning to B19, the binding signal was 0.00773 KA relative to UGCAUGU.

As for B20, the binding signal was 0.0212 KA relative to UGCAUGU.

With B21, the binding signal was 0.0158 KA relative to UGCAUGU.

For B22, the binding signal was 0.00771 KA relative to UGCAUGU.

As for B23, the binding signal is 0.0119 KA relative to UGCAUGU.

For the molecule B24, the binding signal is 0.00464 KA relative to UGCAUGU.

As for B25, the binding signal was 0.0101 KA relative to UGCAUGU.

On to B26, for which the binding signal is 0.00472 KA relative to UGCAUGU.

As to B27, the binding signal was 0.00125 KA relative to UGCAUGU.

Regarding B28, the binding signal was 0.0153 KA relative to UGCAUGU.

Take B29: the binding signal is 0.0143 KA relative to UGCAUGU.

Take B30: the binding signal is 0.00427 KA relative to UGCAUGU.

For B31, the binding signal is 0.00865 KA relative to UGCAUGU.
